This note sets out measurements from the supplement of paper PMC8183993.

Where a name gives a salt, the structure may show the parent alone. ± gives the standard deviation of the averaged measurements. Over roughly 3,200 compounds, “nuclei count (viability) relative to DMSO” has its median near 99; the lowest 2% begin near 16. The list shows a part of the results.

For this assay, the system named is U2OS. The assay can be described thus: nuclei count (viability) relative to DMSO (% of DMSO); higher = more viable cells. The following applies: 10 µM; 24 h. On the procedure:
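Primary image-based screen in U2OS cells: compounds at 10 uM for 24 h, then a 1 h o-propargyl-puromycin (OPP) pulse, click labelling, and high-throughput microscopy. Mean cytoplasmic OPP intensity and nuclei count were normalised to DMSO wells within each plate (DMSO = 100) and averaged over triplicate plates.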
`CC(C)/N=c1\cc2n(-c3ccc(Cl)cc3)c3ccccc3nc-2cc1Nc1ccc(Cl)cc1` [Clofazimine] displayed a nuclei count of 101. Take `O=C1Cc2cc(CCN3CCN(c4nsc5ccccc45)CC3)c(Cl)cc2N1` [Ziprasidone  Hydrochloride]: the nuclei count turned out to be 105.

`CCN[C@H]1C[C@H](C)S(=O)(=O)c2sc(S(N)(=O)=O)cc21` [Dorzolamide hydrochloride]: the nuclei count worked out at 111. Turning to `CCN[C@H]1C[C@H](C)S(=O)(=O)c2sc(S(N)(=O)=O)cc21` [Dorzolamide HCl], the nuclei count was determined as 93.9. With `C[N+](C)(C)CCCCCNCC12CC3CC(CC(C3)C1)C2` the figure was 99.1.

In turn, `CCC(C)[C@H](NS(=O)(=O)c1cccc2ccccc12)C(=O)N[C@H](C=O)Cc1c[nH]c2ccccc12` (some centres undefined) gave a nuclei count of 90.3. With `CC(=O)N(O)CCCCCNC(=O)CCC(=O)N(O)CCCCCNC(=O)CCC(=O)N(O)CCCCCN` [Deferoxamine mesylate] the figure was 83.3. With `O=c1cc(N2CCOCC2)oc2c1ccc1ccccc12` the figure was 80.3; with `CCOC(=O)C(C)(C)Oc1ccc(Cl)cc1` [Clofibrate], 107. Consider `CC(C)NC[C@H](O)COc1ccc(CC(N)=O)cc1` [(S)-(-)-Atenolol], for which the nuclei count came out at 109.

As to `CC(C)NC[C@H](O)COc1ccc(CC(N)=O)cc1` [S-(-)-Atenolol], the nuclei count worked out at 103. As to `CO[C@@]1(NC(=O)CSCC#N)C(=O)N2C(C(=O)O)=C(CSc3nnnn3C)CS[C@@H]21` [Cefmetazole sodium salt], the nuclei count stood at 104.

Compound `COc1ccc2[nH]c(I)c(CCNC(C)=O)c2c1` [2-Iodomelatonin] displayed a nuclei count of 94.9. With `C[C@@H]1[C@H](O)[C@@H](C)/C=C/C=C/C=C/C=C/C=C/C=C/C=C/[C@H](O[C@@H]2O[C@H](C)[C@@H](O)[C@H](N)[C@@H]2O)C[C@@H]2O[C@](O)(C[C@@H](O)C[C@@H](O)[C@H](O)CC[C@@H](O)C[C@@H](O)CC(=O)O[C@H]1C)C[C@H](O)[C@H]2C(=O)O` [Amphotericin B] the figure was 90.1; with `C[C@@H]1[C@H](O)[C@@H](C)/C=C/C=C/C=C/C=C/C=C/C=C/C=C/[C@H](O[C@@H]2O[C@H](C)[C@@H](O)[C@H](N)[C@@H]2O)C[C@@H]2O[C@](O)(C[C@@H](O)C[C@@H](O)[C@H](O)CC[C@@H](O)C[C@@H](O)CC(=O)O[C@H]1C)C[C@H](O)[C@H]2C(=O)O` [Amphotericin B (Abelcet)], 46.2; with `C[C@H](NC(=O)[C@@H](O)c1cc(F)cc(F)c1)C(=O)N[C@@H]1C(=O)N(C)c2ccccc2-c2ccccc21`, 97.6. For `CN1CCN(C2=Cc3ccccc3Oc3ccc(Cl)cc32)CC1`, the nuclei count amounted to 86.5. `CN1C2=CC(=O)/C(=N\NC(N)=O)C=C2CC1S(=O)(=O)O` (centres undefined) [Carbazochrome sodium sulfonate] yielded a nuclei count of 108. For the compound `CCC(NC(C)C)C(O)c1ccc(O)c(O)c1` (centres undefined) [Isoetharine mesylate salt], the nuclei count was 107. In the case of `CCC(Cc1c(I)cc(I)c(N)c1I)C(=O)O` (centres undefined) [Iopanoic acid], the nuclei count came out at 100. `CSCC[C@H](NC=O)C(=O)N[C@@H](CC(=O)O)C(=O)NCC(=O)N[C@@H](CS)C(=O)N[C@@H](CCC(=O)O)C(=O)N[C@@H](CC(C)C)C(=O)O` registered a nuclei count of 99.6. With `CN1CCc2cccc3c2[C@H]1Cc1ccc(O)c(O)c1-3` [(R)-(-)-Apomorphine hydrochloride] the figure was 102; with `CN1CCc2cccc3c2[C@H]1Cc1ccc(O)c(O)c1-3` [R(-) Apomorphine hydrochloride hemihydrate], 83.1; with `C[C@H](NC(=O)Cc1cc(F)cc(F)c1)C(=O)N[C@H](C(=O)OC(C)(C)C)c1ccccc1`, 85.7.

For `CC(=O)OCCNC(=O)c1cccnc1` [N-[2-(Acetoxy)ethyl]-3-pyridinecarboxamide], the nuclei count was 100. In the case of `CNC(CC(=O)O)C(=O)O` [NMDA (N-Methyl-D-aspartic acid)], the nuclei count was 98.2.

`CC(C)(C)C(=O)OCOP(=O)(COCCn1cnc2c(N)ncnc21)OCOC(=O)C(C)(C)C` [Adefovir Dipivoxil (Preveon, Hepsera)] had a nuclei count of 59.3. `Cc1ccc(NC(=O)C(C)C)cc1C1CCN(Cc2ccc(Oc3ccc(F)c(F)c3)cc2)CC1` had a nuclei count of 94.1. The compound `COc1cc(OC)c(C(=O)CCCN2CCCC2)c(OC)c1` [Buflomedil hydrochloride] showed a nuclei count of 91. The value for `O=c1ccc2ccc(O)c(O)c2o1` [Daphnetin] was 104; that for `N#CC(c1ccc(Cl)cc1)c1c(Cl)cc(-n2ncc(=O)[nH]c2=O)cc1Cl` (centres undefined) [Diclazuril] was 99.6.

`CC[C@H](CC[C@@H](C)[C@H]1CC[C@H]2[C@@H]3CC=C4C[C@@H](O)CC[C@]4(C)[C@H]3CC[C@]12C)C(C)C` [?-Sitosterol]: the nuclei count was found to be 110. In turn, `C/C=C1\NC(=O)[C@H]2CSSCC/C=C/[C@H](CC(=O)N[C@H](C(C)C)C(=O)N2)OC(=O)[C@H](C(C)C)NC1=O` [Romidepsin (FK228 ,depsipeptide)] showed a nuclei count of 8.81. Regarding `COc1ccc2c(c1)N(C[C@H](C)CN(C)C)c1ccccc1S2` [Methotrimeprazine maleat salt], the nuclei count worked out at 107. On to `O=C(O)CC[C@H]1CC[C@@](c2cc(F)ccc2F)(S(=O)(=O)c2ccc(Cl)cc2)CC1`, for which the nuclei count was determined as 101. With `CCCN(CCC)C(=O)C(CCC(=O)O)NC(=O)c1ccccc1` (centres undefined) [Proglumide], the nuclei count amounted to 103. With `CCN1C(=O)NC(c2ccccc2)C1=O` (centres undefined) [Ethotoin], the nuclei count amounted to 93.5.

As for `Nc1nc(N)c2nc(-c3cccc(O)c3)cnc2n1`, the nuclei count amounted to 94.7 ± 4.5.

On to `CN1CCC(=C2c3ccccc3CC(=O)c3sccc32)CC1` [Ketotifen fumarate], for which the nuclei count amounted to 99.9 ± 4.6.

`Cc1nnc(-c2ccc3occ(-c4ccc([S+](C)[O-])cc4)c3c2)o1` (centres undefined) returned a nuclei count of 112.

On to `COc1ccccc1N1CCN(CC(O)COc2cccc3ccccc23)CC1` (centres undefined) [Naftopidil dihydrochloride], for which the nuclei count stood at 98.5. `COc1ccccc1N1CCN(CC(O)COc2cccc3ccccc23)CC1` (centres undefined) [Naftopidil hydrochloride] had a nuclei count of 91.6. Compound `CN1CCCC(CC2c3ccccc3Sc3ccccc32)C1` (centres undefined) [Metixene hydrochloride] showed a nuclei count of 101.

For the compound `CC(C)(Sc1cc(C(C)(C)C)c(O)c(C(C)(C)C)c1)Sc1cc(C(C)(C)C)c(O)c(C(C)(C)C)c1` [Probucol], the nuclei count is 101 ± 3.9.
